# Source: article PMC4336329 (PLoS ONE, 2015)
# The campaign covered roughly 310,000 compounds. About 14,000 (4.5%) showed an effect of 50% or more. Effects have a minus sign here. The list shows a part of the results.
# Target: human ether-à-go-go-related gene (hERG) potassium channel (human, UniProt Q12809)
# Assay: primary screen, population patch clamp on CHO cells stably expressing hERG
# 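Also: peak tail current of the secondary pulse compared with the same well before compound.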
# Sequence of human ether-à-go-go-related gene (hERG) potassium channel (Q12809 whole entry, looked up): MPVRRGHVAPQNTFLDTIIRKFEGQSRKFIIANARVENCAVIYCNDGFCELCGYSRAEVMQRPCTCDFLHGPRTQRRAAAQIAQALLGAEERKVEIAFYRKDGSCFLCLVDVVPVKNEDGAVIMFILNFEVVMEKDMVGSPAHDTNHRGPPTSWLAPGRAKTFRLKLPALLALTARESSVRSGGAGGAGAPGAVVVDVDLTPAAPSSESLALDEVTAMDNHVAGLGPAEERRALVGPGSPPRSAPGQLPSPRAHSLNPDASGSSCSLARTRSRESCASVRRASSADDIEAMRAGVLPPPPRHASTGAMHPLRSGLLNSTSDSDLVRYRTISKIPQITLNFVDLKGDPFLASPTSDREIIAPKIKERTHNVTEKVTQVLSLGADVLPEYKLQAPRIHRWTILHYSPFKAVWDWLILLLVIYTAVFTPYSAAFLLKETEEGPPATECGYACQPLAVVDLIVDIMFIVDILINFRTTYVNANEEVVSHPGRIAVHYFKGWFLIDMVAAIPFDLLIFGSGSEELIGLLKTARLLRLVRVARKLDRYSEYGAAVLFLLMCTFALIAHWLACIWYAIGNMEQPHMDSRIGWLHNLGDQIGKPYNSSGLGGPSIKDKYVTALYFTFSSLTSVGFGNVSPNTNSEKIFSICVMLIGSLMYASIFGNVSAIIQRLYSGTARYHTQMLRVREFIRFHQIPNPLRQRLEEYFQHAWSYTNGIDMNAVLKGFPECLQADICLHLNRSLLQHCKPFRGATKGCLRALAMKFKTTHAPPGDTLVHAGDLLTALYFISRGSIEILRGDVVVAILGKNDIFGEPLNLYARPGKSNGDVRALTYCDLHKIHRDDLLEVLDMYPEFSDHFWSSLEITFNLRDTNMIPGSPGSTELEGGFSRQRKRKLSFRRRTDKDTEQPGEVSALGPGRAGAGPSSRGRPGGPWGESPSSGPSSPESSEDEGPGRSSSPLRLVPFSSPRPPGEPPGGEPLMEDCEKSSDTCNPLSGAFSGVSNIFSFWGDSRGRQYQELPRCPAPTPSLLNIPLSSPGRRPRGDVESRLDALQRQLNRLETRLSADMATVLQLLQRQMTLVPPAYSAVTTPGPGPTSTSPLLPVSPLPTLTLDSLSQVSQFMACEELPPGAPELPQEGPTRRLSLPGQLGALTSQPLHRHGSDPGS
row,SMILES,"hERG current change (%, negative = inhibition) at 10uM"
1,COc1ccc(CCNC(=O)c2ccc3c(c2)NC(=O)C(C(C)C)N3)cc1OC (centres unmarked),18.8%
2,CC(C)COc1nc2c(c(=O)n(C)c(=O)n2C)n1C,-7.61%
3,COc1cc(C(=O)NCCCOC(C)C)ccc1OC1CCN(C(C)=O)CC1,23%
4,CCOc1ccc(/C(O)=C2/C(=O)C(=O)N(c3ncccn3)C2c2ccc(C)cc2)cc1 (centres unmarked),6.78%
5,CCOC(=O)c1c(NC(=O)Cn2nc(C(=O)O)c3ccccc3c2=O)sc(C)c1C,7.67%
6,CC(C)C(=O)Nc1ccc(NC(=O)c2cccc3c(Br)cccc23)cc1,19.2%
7,Cc1cc(C)c(S(N)(=O)=O)c(C)c1N(C)S(=O)(=O)c1ccc(Cl)cc1,-41.8%
8,Cc1ccc(OCCn2cc(/C=C3\C(=O)NN(c4ccccc4)C3=O)c3ccccc32)cc1,11.7%
9,Cc1nc(C(F)(F)F)c(C(=O)N/N=C(\N)c2cccnc2)s1,32.5%
10,O=C(Nc1cccc(S(=O)(=O)N2CCOCC2)c1)c1ccc(N2CCOCC2)c([N+](=O)[O-])c1,-18.1%
11,Cc1ccc(N(CC(=O)NCC2CCCO2)C(=O)CCC(=O)Nc2nccs2)cc1C (centres unmarked),21.7%
12,Cc1cccc(C(C)Nc2ccc([N+](=O)[O-])cn2)c1 (centres unmarked),-68.9%
13,CCOc1ccc(C(=O)NC2CCN(C(=O)Nc3ccccc3OC)CC2)cc1,14.6%
14,CN1CCc2c(sc3c2C(=O)NC(c2ccco2)N3)C1 (centres unmarked),-0.786%
15,O=S(=O)(c1c(F)cccc1F)N1CCN(Cc2c(O)ccc3ccccc23)CC1,-1.29%
16,COc1cc(CN2CCCC(C(=O)c3sccc3C)C2)cc(OC)c1O (centres unmarked),-47.8%
17,COC(=O)c1cc(=O)nc2sc(-c3ccc(F)cc3)nn12,-1.86%
18,O=C(c1c[nH]c(C(=O)C(Cl)(Cl)Cl)c1)c1ccccc1F,15.8%
19,Fc1ccc(-c2nnc(-n3nnc4ccccc43)c3ccccc23)cc1,2.8%
20,Cn1nc(C(F)(F)F)c(C(=O)Nc2ccc(F)cc2F)c1Sc1cccc(Cl)c1,-4.65%
21,COc1ccc(CN2CCNC(=O)C2CC(=O)N(C)Cc2nccs2)c(OC)c1 (centres unmarked),-5.95%
22,COCCNC(=O)C1CC2Cn3c(nc4cc(Cl)c(Cl)cc43)C2N1C (centres unmarked),-26.5%
23,O=C(CCC(=O)N1CCCC1)Nc1nnc(C2CCCCC2)s1,-3.22%
24,Cc1ccc(Cl)cc1N1CCN(C(=O)c2noc(C(C)C)c2[N+](=O)[O-])CC1,11.7%
25,COc1ccc(NC(=O)[C@@H](NC(=O)c2ccccc2)C(C)C)cc1S(=O)(=O)N1CCCCC1,-5.89%
26,O=c1c2c(n3cnnc3n1-c1ccccc1)-c1ccccc1CC21CCCC1,6.25%
27,CC(=O)Nc1ccc(-c2csc(NC(=O)CN3C(=O)NC4(CCCC4)C3=O)n2)cc1,24.3%

row,SMILES,"hERG current change (%, negative = inhibition) at 10uM"
1,O=c1c(/C=C(\O)c2ccccc2)nc2ccccc2n1-c1ccccc1,10.4%
2,O=C(N/N=C/c1ccc(Br)s1)c1cccnc1,-5.72%
3,CN(C)S(=O)(=O)c1ccc(/C(O)=C2/C(=O)C(=O)N(Cc3cccnc3)C2c2ccco2)cc1 (centres unmarked),5.35%
4,COc1cc(C2NC(=O)NC(C)=C2C(=O)OC(C)(C)C)ccc1OCC(=O)O (centres unmarked),20.4%
5,CCc1cc(C(=O)OC)c(NC(=O)c2ccoc2C)s1,18.5%
6,Cn1ncc(N=Cc2ccccc2O)c1C(=O)Nc1ccccc1,-1.94%
7,CC(NC(=O)CSc1ccccc1)c1ccccc1 (centres unmarked),26.3%
8,COc1cc(NC(=S)Nc2ccccn2)cc(OC)c1OC,4.65%
9,CC(C)Sc1nc(SCC(=O)NCc2ccco2)c2c3c(sc2n1)COC(C)(C)C3,16.3%
10,CCN1CCN(c2ncc3c(n2)CC(c2ccc(OC)c(OC)c2)CC3=O)CC1 (centres unmarked),-16.2%
11,CNc1nc(-c2ccc(OC)cc2)c(-c2ccc(OC)cc2)s1,-12.7%
12,Cc1ccc(OCC(=O)N2CCN(C(=O)c3ccco3)CC2)cc1,-37.7%
13,O=C(O)COc1ccccc1/C=N/NC(=O)CSc1nc2ccccc2c(=O)n1-c1ccc(Cl)cc1,13.2%
14,Cc1ccc(-n2c(SCC(=O)Nc3ncc(Cl)cc3Cl)nc3ccccc32)cc1,6.45%
15,O=C(NCC1CCCO1)c1ccc(NC(=O)c2cc(F)c(F)cc2Cl)cc1 (centres unmarked),-3.36%
16,NC(=O)C1(N2CCCCC2)CCN(C(=S)Nc2ccc(F)c(Cl)c2)CC1,-4.18%
17,CC(=O)Nc1ccc(S(=O)(=O)N2CCC(N3CCCCC3)CC2)cc1,14.7%
18,CCN1CCCC1CNS(=O)(=O)c1ccc(C(=O)Nc2ccccc2)cc1 (centres unmarked),-10.4%
19,COc1ccccc1C(=O)COC(=O)CCCN=C1NS(=O)(=O)c2ccccc21,4.48%
20,CCCCn1c(NCc2ccc3c(c2)OCO3)nc2ccccc21,-61%
21,CC(C(=O)N(C)C)N1c2cccc3cccc(c23)S1(=O)=O (centres unmarked),15.2%
22,Cn1cnc2c1c(=O)[nH]c(=O)n2Cc1ccccc1,4.04%
23,O=C(c1cc2c(s1)CCCC2)N1CCN(S(=O)(=O)c2ccccc2C(F)(F)F)CC1,6.23%
24,O=C(NC1CCCCC1)c1ccc(CN2CCOCC2)cc1,-3.94%
25,Cc1ccc(NC(=O)c2cn(CCC#N)nc2-c2ccc3c(c2)OCCO3)c([N+](=O)[O-])c1,-33.9%
26,Cc1ccc(S(=O)(=O)N2CCOCC2)cc1C(=O)NCCN1C(=O)S/C(=C\c2ccccc2Cl)C1=O,-10.2%
